Publication PMC6713913
No constants are given. Whether binding was seen depends on the method and setting. Binding seen in cells or lysates may run through a third protein. Some results given as binding are weak or reduced against the parent protein; the word gives no strength. For some assays here: Tags and fused reporters may be left off the sequences shown.

Amino acid sequences for entries named in this document (tags omitted).
UniProt P02533: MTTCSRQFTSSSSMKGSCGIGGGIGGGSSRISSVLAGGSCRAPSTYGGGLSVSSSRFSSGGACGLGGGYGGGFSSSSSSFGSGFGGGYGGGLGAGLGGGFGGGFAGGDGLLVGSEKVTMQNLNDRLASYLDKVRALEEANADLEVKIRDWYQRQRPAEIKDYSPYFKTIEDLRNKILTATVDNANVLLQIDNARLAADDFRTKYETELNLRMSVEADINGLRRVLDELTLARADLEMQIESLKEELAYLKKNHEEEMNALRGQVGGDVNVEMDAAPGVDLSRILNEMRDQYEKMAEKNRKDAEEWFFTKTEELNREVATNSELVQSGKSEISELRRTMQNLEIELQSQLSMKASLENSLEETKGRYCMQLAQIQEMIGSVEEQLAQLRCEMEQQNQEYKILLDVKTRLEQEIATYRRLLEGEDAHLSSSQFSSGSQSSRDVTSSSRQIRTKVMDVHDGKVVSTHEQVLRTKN
UniProt P13647: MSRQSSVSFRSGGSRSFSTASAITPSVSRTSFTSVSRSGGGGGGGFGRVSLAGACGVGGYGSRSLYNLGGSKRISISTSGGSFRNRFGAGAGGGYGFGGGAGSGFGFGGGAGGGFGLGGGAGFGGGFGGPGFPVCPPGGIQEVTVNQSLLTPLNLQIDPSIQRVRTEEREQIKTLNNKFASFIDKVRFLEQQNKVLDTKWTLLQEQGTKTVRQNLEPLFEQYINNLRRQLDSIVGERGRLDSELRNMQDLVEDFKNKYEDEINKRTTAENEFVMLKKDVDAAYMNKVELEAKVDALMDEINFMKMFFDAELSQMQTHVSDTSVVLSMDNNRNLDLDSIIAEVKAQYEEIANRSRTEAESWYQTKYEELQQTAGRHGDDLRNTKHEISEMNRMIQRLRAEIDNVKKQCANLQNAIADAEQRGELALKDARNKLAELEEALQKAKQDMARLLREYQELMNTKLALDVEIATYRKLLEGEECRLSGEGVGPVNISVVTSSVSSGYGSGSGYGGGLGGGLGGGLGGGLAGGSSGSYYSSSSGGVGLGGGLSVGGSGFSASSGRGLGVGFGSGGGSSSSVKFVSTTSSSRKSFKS

B1: full-length Flag-tagged RIPK4 (protein, UniProt P57078-2 1-784)
chain: MEGDGGTPWALALLRTFDAGEFTGWEKVGSGGFGQVYKVRHVHWKTWLAIKCSPSLHVDDRERMELLEEAKKMEMAKFRYILPVYGICREPVGLVMEYMETGSLEKLLASEPLPWDLRFRIIHETAVGMNFLHCMAPPLLHLDLKPANILLDAHYHVKISDFGLAKCNGLSHSHDLSMDGLFGTIAYLPPERIREKSRLFDTKHDVYSFAIVIWGVLTQKKPFADEKNILHIMVKVVKGHRPELPPVCRARPRACSHLIRLMQRCWQGDPRVRPTFQEITSETEDLCEKPDDEVKETAHDLDVKSPPEPRSEVVPARLKRASAPTFDNDYSLSELLSQLDSGVSQAVEGPEELSRSSSESKLPSSGSGKRLSGVSSVDSAFSSRGSLSLSFEREPSTSDLGTTDVQKKKLVDAIVSGDTSKLMKILQPQDVDLALDSGASLLHLAVEAGQEECAKWLLLNNANPNLSNRRGSTPLHMAVERRVRGVVELLLARKISVNAKDEDQWTALHFAAQNGDESSTRLLLEKNASVNEVDFEGRTPMHVACQHGQENIVRILLRRGVDVSLQGKDAWLPLHYAAWQGHLPIVKLLAKQPGVSVNAQTLDGRTPLHLAAQRGHYRVARILIDLCSDVNVCSLLAQTPLHVAAETGHTSTARLLLHRGAGKEAMTSDGYTALHLAARNGHLATVKLLVEEKADVLARGPLNQTALHLAAAHGHSEVVEELVSADVIDLFDEQGLSALHLAAQGRHAQTVETLLRHGAHINLQSLKFQGGHGPAATLLRRSKT
B2: RIPK4 N-Ter (containing kinase domain, aa 1-292), Flag-tagged (domain or fragment, UniProt P57078-2 1-292)
chain: MEGDGGTPWALALLRTFDAGEFTGWEKVGSGGFGQVYKVRHVHWKTWLAIKCSPSLHVDDRERMELLEEAKKMEMAKFRYILPVYGICREPVGLVMEYMETGSLEKLLASEPLPWDLRFRIIHETAVGMNFLHCMAPPLLHLDLKPANILLDAHYHVKISDFGLAKCNGLSHSHDLSMDGLFGTIAYLPPERIREKSRLFDTKHDVYSFAIVIWGVLTQKKPFADEKNILHIMVKVVKGHRPELPPVCRARPRACSHLIRLMQRCWQGDPRVRPTFQEITSETEDLCEKPDD
B3: kinase-dead RIPK4 (K51R), Flag-tagged (protein, UniProt P57078-2 1-784)
chain: MEGDGGTPWALALLRTFDAGEFTGWEKVGSGGFGQVYKVRHVHWKTWLAIRCSPSLHVDDRERMELLEEAKKMEMAKFRYILPVYGICREPVGLVMEYMETGSLEKLLASEPLPWDLRFRIIHETAVGMNFLHCMAPPLLHLDLKPANILLDAHYHVKISDFGLAKCNGLSHSHDLSMDGLFGTIAYLPPERIREKSRLFDTKHDVYSFAIVIWGVLTQKKPFADEKNILHIMVKVVKGHRPELPPVCRARPRACSHLIRLMQRCWQGDPRVRPTFQEITSETEDLCEKPDDEVKETAHDLDVKSPPEPRSEVVPARLKRASAPTFDNDYSLSELLSQLDSGVSQAVEGPEELSRSSSESKLPSSGSGKRLSGVSSVDSAFSSRGSLSLSFEREPSTSDLGTTDVQKKKLVDAIVSGDTSKLMKILQPQDVDLALDSGASLLHLAVEAGQEECAKWLLLNNANPNLSNRRGSTPLHMAVERRVRGVVELLLARKISVNAKDEDQWTALHFAAQNGDESSTRLLLEKNASVNEVDFEGRTPMHVACQHGQENIVRILLRRGVDVSLQGKDAWLPLHYAAWQGHLPIVKLLAKQPGVSVNAQTLDGRTPLHLAAQRGHYRVARILIDLCSDVNVCSLLAQTPLHVAAETGHTSTARLLLHRGAGKEAMTSDGYTALHLAARNGHLATVKLLVEEKADVLARGPLNQTALHLAAAHGHSEVVEELVSADVIDLFDEQGLSALHLAAQGRHAQTVETLLRHGAHINLQSLKFQGGHGPAATLLRRSKT
B4: His-RIPK4 (bacterial expression) (protein, UniProt P57078-2 1-784)
chain: MEGDGGTPWALALLRTFDAGEFTGWEKVGSGGFGQVYKVRHVHWKTWLAIKCSPSLHVDDRERMELLEEAKKMEMAKFRYILPVYGICREPVGLVMEYMETGSLEKLLASEPLPWDLRFRIIHETAVGMNFLHCMAPPLLHLDLKPANILLDAHYHVKISDFGLAKCNGLSHSHDLSMDGLFGTIAYLPPERIREKSRLFDTKHDVYSFAIVIWGVLTQKKPFADEKNILHIMVKVVKGHRPELPPVCRARPRACSHLIRLMQRCWQGDPRVRPTFQEITSETEDLCEKPDDEVKETAHDLDVKSPPEPRSEVVPARLKRASAPTFDNDYSLSELLSQLDSGVSQAVEGPEELSRSSSESKLPSSGSGKRLSGVSSVDSAFSSRGSLSLSFEREPSTSDLGTTDVQKKKLVDAIVSGDTSKLMKILQPQDVDLALDSGASLLHLAVEAGQEECAKWLLLNNANPNLSNRRGSTPLHMAVERRVRGVVELLLARKISVNAKDEDQWTALHFAAQNGDESSTRLLLEKNASVNEVDFEGRTPMHVACQHGQENIVRILLRRGVDVSLQGKDAWLPLHYAAWQGHLPIVKLLAKQPGVSVNAQTLDGRTPLHLAAQRGHYRVARILIDLCSDVNVCSLLAQTPLHVAAETGHTSTARLLLHRGAGKEAMTSDGYTALHLAARNGHLATVKLLVEEKADVLARGPLNQTALHLAAAHGHSEVVEELVSADVIDLFDEQGLSALHLAAQGRHAQTVETLLRHGAHINLQSLKFQGGHGPAATLLRRSKT
B5: RIPK4 ID (intermediate domain, aa 278-438), Flag-tagged (domain or fragment, UniProt P57078-2 278-438)
chain: EITSETEDLCEKPDDEVKETAHDLDVKSPPEPRSEVVPARLKRASAPTFDNDYSLSELLSQLDSGVSQAVEGPEELSRSSSESKLPSSGSGKRLSGVSSVDSAFSSRGSLSLSFEREPSTSDLGTTDVQKKKLVDAIVSGDTSKLMKILQPQDVDLALDSG
B6: RIPK4 C-Ter (containing ID and ankyrin, aa 278-784), Flag-tagged (domain or fragment, UniProt P57078-2 278-784)
chain: EITSETEDLCEKPDDEVKETAHDLDVKSPPEPRSEVVPARLKRASAPTFDNDYSLSELLSQLDSGVSQAVEGPEELSRSSSESKLPSSGSGKRLSGVSSVDSAFSSRGSLSLSFEREPSTSDLGTTDVQKKKLVDAIVSGDTSKLMKILQPQDVDLALDSGASLLHLAVEAGQEECAKWLLLNNANPNLSNRRGSTPLHMAVERRVRGVVELLLARKISVNAKDEDQWTALHFAAQNGDESSTRLLLEKNASVNEVDFEGRTPMHVACQHGQENIVRILLRRGVDVSLQGKDAWLPLHYAAWQGHLPIVKLLAKQPGVSVNAQTLDGRTPLHLAAQRGHYRVARILIDLCSDVNVCSLLAQTPLHVAAETGHTSTARLLLHRGAGKEAMTSDGYTALHLAARNGHLATVKLLVEEKADVLARGPLNQTALHLAAAHGHSEVVEELVSADVIDLFDEQGLSALHLAAQGRHAQTVETLLRHGAHINLQSLKFQGGHGPAATLLRRSKT
B7: RIPK4 overexpressed together with Flag-KRT5 (Figures 3A and 3B) (protein, UniProt P57078-2 1-784)
chain: MEGDGGTPWALALLRTFDAGEFTGWEKVGSGGFGQVYKVRHVHWKTWLAIKCSPSLHVDDRERMELLEEAKKMEMAKFRYILPVYGICREPVGLVMEYMETGSLEKLLASEPLPWDLRFRIIHETAVGMNFLHCMAPPLLHLDLKPANILLDAHYHVKISDFGLAKCNGLSHSHDLSMDGLFGTIAYLPPERIREKSRLFDTKHDVYSFAIVIWGVLTQKKPFADEKNILHIMVKVVKGHRPELPPVCRARPRACSHLIRLMQRCWQGDPRVRPTFQEITSETEDLCEKPDDEVKETAHDLDVKSPPEPRSEVVPARLKRASAPTFDNDYSLSELLSQLDSGVSQAVEGPEELSRSSSESKLPSSGSGKRLSGVSSVDSAFSSRGSLSLSFEREPSTSDLGTTDVQKKKLVDAIVSGDTSKLMKILQPQDVDLALDSGASLLHLAVEAGQEECAKWLLLNNANPNLSNRRGSTPLHMAVERRVRGVVELLLARKISVNAKDEDQWTALHFAAQNGDESSTRLLLEKNASVNEVDFEGRTPMHVACQHGQENIVRILLRRGVDVSLQGKDAWLPLHYAAWQGHLPIVKLLAKQPGVSVNAQTLDGRTPLHLAAQRGHYRVARILIDLCSDVNVCSLLAQTPLHVAAETGHTSTARLLLHRGAGKEAMTSDGYTALHLAARNGHLATVKLLVEEKADVLARGPLNQTALHLAAAHGHSEVVEELVSADVIDLFDEQGLSALHLAAQGRHAQTVETLLRHGAHINLQSLKFQGGHGPAATLLRRSKT

How the values were obtained:
[1] = target: endogenous KRT14 of HaCaT cells (human (endogenous in HaCaT)) (UniProt P02533); assay: co-IP; endogenous KRT14 immunoprecipitated with anti-KRT14 from HaCaT and RIPK4 KO (CRISPR/Cas9) cell lysates, mouse anti-Flag as control; blots with anti-KRT5, anti-KRT14 and anti-RIPK4
[2] = target: GST-tagged KRT14 (mammalian expression) (human) (UniProt P02533); assay: co-IP; HEK293T cells transfected with Flag-RIPK4 constructs and GST-KRT14; GST-KRT14 immunoprecipitated with anti-GST and protein G agarose, 4 °C; blots with anti-Flag and anti-GST
[3] = target: GST-KRT14 (bacterial expression) (human) (UniProt P02533); assay: pull-down; GST-KRT14 from bacteria bound to GST trap beads, incubated with His-RIPK4 containing bacterial lysate 1 h at 4 °C; washes with 300 mM NaCl, 0.1% NP-40; blots with anti-RIPK4 and anti-GST; only the target purified
Flag-KRT5 (human) = Flag-KRT5 (human) (UniProt P13647); assay: co-IP; transfected HEK293T cells; Flag-KRT5 immunoprecipitated with anti-Flag; blots with anti-Flag, anti-GST and anti-RIPK4; with or without RIPK4 overexpression

Row | Molecule | binding [2] | other results
1 | endogenous KRT5 of HaCaT cells (from UniProt P13647 1-590) |  | binding [1]: binds
2 | B1 | binds | 
3 | B2 | binds | 
4 | B3 | binds | 
5 | B4 |  | binding [3]: binds
6 | B5 | no binding | 
7 | B6 | no binding | 
8 | B7 |  | binding (Flag-KRT5 (human)): no binding
